The supplement of paper PMC8728848
The other results are listed elsewhere or left out.

What was measured:
Assay in all cases: glycan array binding signal (z-score within array); higher = stronger binding
Details in all cases: glycan notation: IUPAC condensed, linker removed
[1] = molecular target: Neu5Ac(a2-6)GlcNAc(b1-4)GlcNAc(b1-4)GlcNAc
Summary of the method: (§1)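 From the Consortium for Functional Glycomics database, 3228 arrays were curated, keeping only those whose protein sequence was available. Binding is given as a within-array Z-score averaged across arrays sharing a protein sequence and across linkers. Negative Z-scores can be read as non-binding.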

Neu5Ac(a2-8)Neu5Ac = molecular target: Neu5Ac(a2-8)Neu5Ac
Summary of the method: as §1

[2] = molecular target: Neu5Ac(a2-8)Neu5Ac(a2-3)Gal(b1-3)GalNAc(b1-4)[Neu5Ac(a2-3)]Gal(b1-4)Glc
Summary of the method: as §1

[3] = molecular target: Neu5Ac(a2-8)Neu5Ac(a2-3)Gal(b1-3)GalNAc(b1-4)[Neu5Ac(a2-8)Neu5Ac(a2-3)]Gal(b1-4)Glc
Summary of the method: as §1

[4] = molecular target: Neu5Ac(a2-8)Neu5Ac(a2-3)Gal(b1-4)Glc
Summary of the method: as §1

[5] = molecular target: Neu5Ac(a2-8)Neu5Ac(a2-3)Gal(b1-4)GlcNAc
Summary of the method: as §1

[6] = molecular target: Neu5Ac(a2-8)Neu5Ac(a2-3)[Gal(b1-3)GalNAc(b1-4)]Gal(b1-4)Glc
Summary of the method: as §1

[7] = molecular target: Neu5Ac(a2-8)Neu5Ac(a2-3)[GalNAc(b1-4)]Gal(b1-4)Glc
Summary of the method: as §1

[8] = molecular target: Neu5Ac(a2-8)Neu5Ac(a2-8)Neu5Ac
Summary of the method: as §1

[9] = molecular target: Neu5Ac(a2-8)Neu5Ac(a2-8)Neu5Ac(a2-3)Gal(b1-4)Glc
Summary of the method: as §1

[10] = molecular target: Neu5Ac(a2-8)Neu5Ac(a2-8)Neu5Ac(a2-3)[Gal(b1-3)GalNAc(b1-4)]Gal(b1-4)Glc
Summary of the method: as §1

[11] = molecular target: Neu5Ac(a2-8)Neu5Ac(a2-8)Neu5Ac(a2-3)[GalNAc(b1-4)]Gal(b1-4)Glc
Summary of the method: as §1

[12] = molecular target: Neu5Ac(a2-8)Neu5Ac(a2-8)Neu5Ac(a2-8)Neu5Ac(a2-3)[GalNAc(b1-4)]Gal(b1-4)Glc
Summary of the method: as §1

[13] = molecular target: Neu5Ac(a2-8)Neu5Gc(a2-3)Gal(b1-4)GlcNAc
Summary of the method: as §1

[14] = molecular target: Neu5Ac(b2-6)Gal(b1-4)GlcNAc
Summary of the method: as §1

Neu5Ac(b2-6)GalNAc = molecular target: Neu5Ac(b2-6)GalNAc
Summary of the method: as §1

[15] = molecular target: Neu5Ac9Ac(a2-3)Gal(b1-3)GlcNAc
Summary of the method: as §1

[16] = molecular target: Neu5Ac9Ac(a2-3)Gal(b1-4)GlcNAc
Summary of the method: as §1

[17] = molecular target: Neu5Ac9Ac(a2-6)Gal(b1-4)GlcNAc
Summary of the method: as §1

[18] = molecular target: Neu5Gc(a2-3)Gal(b1-3)GlcNAc
Summary of the method: as §1

[19] = molecular target: Neu5Gc(a2-3)Gal(b1-3)[Fuc(a1-4)]GlcNAc
Summary of the method: as §1

Neu5Gc(a2-3)Gal(b1-4)Glc = molecular target: Neu5Gc(a2-3)Gal(b1-4)Glc
Summary of the method: as §1

[20] = molecular target: Neu5Gc(a2-3)Gal(b1-4)GlcNAc
Summary of the method: as §1

[21] = molecular target: Neu5Gc(a2-3)Gal(b1-4)GlcNAc(b1-3)Gal(b1-4)GlcNAc(b1-2)Man(a1-3)[Neu5Gc(a2-3)Gal(b1-4)GlcNAc(b1-3)Gal(b1-4)GlcNAc(b1-2)Man(a1-6)]Man(b1-4)GlcNAc(b1-4)GlcNAc
Summary of the method: as §1

[22] = molecular target: Neu5Gc(a2-3)Gal(b1-4)[Fuc(a1-3)]GlcNAc
Summary of the method: as §1

[23] = molecular target: Neu5Gc(a2-6)Gal(b1-4)GlcNAc
Summary of the method: as §1

Neu5Gc(a2-6)GalNAc = molecular target: Neu5Gc(a2-6)GalNAc
Summary of the method: as §1

[24] = molecular target: Neu5Gc(a2-8)Neu5Ac(a2-3)Gal(b1-4)GlcNAc
Summary of the method: as §1

[25] = molecular target: Neu5Gc(a2-8)Neu5Gc(a2-3)Gal(b1-4)GlcNAc
Summary of the method: as §1

[26] = molecular target: Neu5Gc(a2-8)Neu5Gc(a2-3)Gal(b1-4)GlcNAc(b1-3)Gal(b1-4)GlcNAc
Summary of the method: as §1

[27] = molecular target: Neu5Gc(a2-8)Neu5Gc(a2-6)Gal(b1-4)GlcNAc
Summary of the method: as §1

[28] = molecular target: Neu5Gc(b2-6)Gal(b1-4)GlcNAc
Summary of the method: as §1

B1: LSL-150 (Laetiporus sulphureus), Q7Z8V1 (protein)
chain: MTDIYIPPEGLYFRLLGFASRQVIFARNSPSPDVGLSPVNDQATDQYFSLIYGTGEHAGLYAIKSKATGKVLFSRRPAEPYVGQIDGDGRYPDNWFKIEPGKTYLSKYFRLVQPSTGTALVSRTHLQPYFWNHPQTEVFDDQYFTFLFEDHHHHHH
Q: Which results are given for B1?
A: glycan array binding signal (z-score) [1]: -0.209; glycan array binding signal (z-score) (Neu5Ac(a2-8)Neu5Ac): -0.2; glycan array binding signal (z-score) [2]: -0.202; glycan array binding signal (z-score) [3]: -0.193; glycan array binding signal (z-score) [4]: -0.205; glycan array binding signal (z-score) [5]: -0.204; glycan array binding signal (z-score) [6]: -0.195; glycan array binding signal (z-score) [7]: -0.209; glycan array binding signal (z-score) [8]: -0.21; glycan array binding signal (z-score) [9]: -0.206; glycan array binding signal (z-score) [10]: -0.209; glycan array binding signal (z-score) [11]: -0.203; glycan array binding signal (z-score) [12]: -0.201; glycan array binding signal (z-score) [13]: -0.21; glycan array binding signal (z-score) [14]: -0.208; glycan array binding signal (z-score) (Neu5Ac(b2-6)GalNAc): -0.212; glycan array binding signal (z-score) [15]: -0.208; glycan array binding signal (z-score) [16]: -0.21; glycan array binding signal (z-score) [17]: -0.207; glycan array binding signal (z-score) [18]: -0.213; glycan array binding signal (z-score) [19]: -0.207; glycan array binding signal (z-score) (Neu5Gc(a2-3)Gal(b1-4)Glc): -0.205; glycan array binding signal (z-score) [20]: -0.207; glycan array binding signal (z-score) [21]: -0.003; glycan array binding signal (z-score) [22]: -0.208; glycan array binding signal (z-score) [23]: -0.206; glycan array binding signal (z-score) (Neu5Gc(a2-6)GalNAc): -0.207; glycan array binding signal (z-score) [24]: -0.202; glycan array binding signal (z-score) [25]: -0.211; glycan array binding signal (z-score) [26]: -0.196; glycan array binding signal (z-score) [27]: -0.206; glycan array binding signal (z-score) [28]: -0.203
